# Reference: paper PMC6919601, “Identification of Plasmodium dipeptidyl aminopeptidase allosteric inhibitors by high throughput screening” (PLoS ONE, 2019)
# The campaign covered roughly 110,000 compounds. About 230 (0.21%) showed an effect of 50% or more. This is one part of the list.
# Target: DPAP1 (Plasmodium falciparum, UniProt Q8IIJ9)
# Assay: primary screen, percent inhibition; read by cleavage of a fluorogenic dipeptide substrate; higher = more effect of the substance
# Design: species or system P. falciparum D10 trophozoite lysates; single well
# 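Also: 30 min substrate incubation versus DMSO and 10 µM JCP410 controls.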
# Chain of DPAP1 (Q8IIJ9 whole entry, looked up): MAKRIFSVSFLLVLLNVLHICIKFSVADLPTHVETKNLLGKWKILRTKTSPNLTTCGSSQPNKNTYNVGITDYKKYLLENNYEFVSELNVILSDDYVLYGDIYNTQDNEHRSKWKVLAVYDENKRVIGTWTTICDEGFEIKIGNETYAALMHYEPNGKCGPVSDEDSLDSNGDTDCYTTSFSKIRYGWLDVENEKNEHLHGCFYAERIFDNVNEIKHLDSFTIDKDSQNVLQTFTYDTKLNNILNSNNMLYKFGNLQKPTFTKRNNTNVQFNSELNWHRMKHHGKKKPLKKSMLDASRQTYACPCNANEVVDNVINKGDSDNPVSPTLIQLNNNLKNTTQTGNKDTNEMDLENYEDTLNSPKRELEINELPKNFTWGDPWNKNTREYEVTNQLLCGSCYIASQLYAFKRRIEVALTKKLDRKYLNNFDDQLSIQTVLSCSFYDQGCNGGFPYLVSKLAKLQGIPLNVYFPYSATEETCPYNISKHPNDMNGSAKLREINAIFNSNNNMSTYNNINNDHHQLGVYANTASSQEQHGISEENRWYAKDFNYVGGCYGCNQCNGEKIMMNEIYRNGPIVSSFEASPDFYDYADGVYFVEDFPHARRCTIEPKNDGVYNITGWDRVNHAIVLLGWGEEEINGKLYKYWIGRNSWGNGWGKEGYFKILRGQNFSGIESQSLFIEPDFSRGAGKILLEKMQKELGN
row,Structure (SMILES),% Inhibition @ 10 uM
1,CC(=O)c1sc(Nc2ccc(N(C)C)cc2)nc1C,-2.54%
2,CCOC(=O)N1CCN(C(=O)c2c(C)oc3c2C(=O)c2ccccc2C3=O)CC1,-5.41%
3,O=C(Nc1ccccc1C(F)(F)F)c1ccccc1Cl,-3.26%
4,Cc1ccc(-c2csc(NC(=O)C3C4CCC(C4)C3C(=O)O)n2)cc1C (stereo not drawn),-0.67%
5,CCOCCCN1C(=O)C(O)=C(C(C)=O)C1c1cccs1 (stereo not drawn),2.02%
6,CN(C)CCN(C)CC1CCCCC1,-5.26%
7,Cc1ccc(NC(=O)Cn2c(-c3nonc3N)nc3ccccc32)cc1F,10%
8,CSc1ccc(CN(CCO)Cc2ccccc2)cc1,1.26%
9,O=C(Nc1nc(-c2ccc(F)cc2)cs1)c1cnccn1,2.69%
10,CC/N=C1\S/C(=C\c2cc(OCC)c(O)cc2Br)C(=O)N1CC,0.205%
11,CCOCCCNC(=O)c1cc2c(=O)n3cccc(C)c3nc2n1C,-1.87%
12,O=C(Nc1ccc(Cl)cc1)Nc1ccc(F)c(Cl)c1,6.06%
13,CC1=CC2=NC(=O)/C(=C\c3ccc(Sc4ccc(C)cc4)o3)C(=N)N2O1,1.79%
14,CS(=O)(=O)N(CC(=O)N1CCN(c2cccc(Cl)c2)CC1)c1cc(Cl)cc(Cl)c1,12.2%
15,Cc1cc(O)c(C2=NCCSC(c3ccc(O)c([N+](=O)[O-])c3)C2)c(=O)o1 (stereo not drawn),2.94%
16,Cc1ccc(-n2nc3c(c2NC(=O)C24CC5CC(CC(C5)C2)C4)CS(=O)(=O)C3)cc1,-1.12%
17,COc1cccc(S(=O)(=O)Nc2ccc(C(=O)N3CCCCCC3)cc2)c1,1.1%
18,C=CCn1c(SCC(=O)Nc2cc(OC)ccc2OC)nc2sc(C)cc2c1=O,-1.38%
19,CCCCn1c(=O)c(C(=O)Nc2nc(-c3ccccc3)cs2)c(O)c2ccccc21,2.22%
20,O=C(Nc1cccnc1Cl)c1cc2nc(-c3ccc4c(c3)OCO4)cc(C(F)(F)F)n2n1,0.0265%
21,COc1ccc(-c2cc3c4c(C)n(C)c(C)c4c(C)nn3c2)cc1,-4.75%
22,NC(=O)C12CC3CC(C1)C(=O)C(C3)C2,0.815%
23,COc1c(F)c(F)c(/C=C/C(=O)O)c(F)c1F,-1.33%
24,COc1ccc(COC(=O)N[C@@H](CC(C)C)C(=O)NCC#N)cc1OC,4.63%
25,Cc1ccc(-c2c(C#N)c(N)nc3c2CCCC3)o1,3.74%
26,CCc1s/c(=N\C(=O)c2cccnc2)n(C)c1-c1ccc(OC)cc1,1.28%

row,Structure (SMILES),% Inhibition @ 10 uM
1,Cc1ccc(N2CC(C(=O)NCc3cccs3)CC2=O)cc1 (stereo not drawn),-4.7%
2,N#CCNC(=O)[C@H](Cc1cc(I)c(O)c(I)c1)NC(=O)c1ccc(-c2ccccc2)cc1,-1.41%
3,CCC(C)NC(=O)c1ccc2snnc2c1 (stereo not drawn),-0.0235%
4,COCCNC(=O)c1[nH]c2ccccc2c1Sc1ccc(Cl)cc1,-1.33%
5,Cc1ccc(N2C(=O)c3ccccc3NC2c2cccc([N+](=O)[O-])c2)cc1 (stereo not drawn),-5.2%
6,CCc1ccc(C2C(C(=O)O)c3ccccc3C(=O)N2C)cc1 (stereo not drawn),0.231%
7,CCOC(=O)c1cnc2ccc(OC)cc2c1O,1.19%
8,Cc1cccc(N(CC(=O)N2CCCC2)S(=O)(=O)c2ccccc2)c1,3.17%
9,C=CCn1c(SCC(=O)NC2CCCC2)nnc1-c1cccnc1,0.503%
10,O=C(NCCN1CCCCCC1)c1cc(-c2ccncc2)nc2ccccc12,-0.519%
11,Cc1cc(N2CCCCCC2)n2c(nc3ccccc32)c1C#N,21.6%
12,OCCOCCN1CCN(C2CCCCCCC2)CC1,-1.81%
13,CCC1(CC)C(=O)N=C(NCCc2ccc(O)cc2)NC1=O,5.84%
14,COc1ccc(OC)c(CCNC(=O)Cn2cc3c(n2)-c2c(oc(C(=O)N4CCCC4)c2C)CC3)c1,3.61%
15,CC1CCCC(NCCCN2CCOCC2)C1 (stereo not drawn),3.19%
16,O=C1CSc2nnc(-c3ccccc3Br)n2N1,2.89%
17,CN1CCCN(Cc2ccccc2C(F)(F)F)CC1,-5.68%
18,Cc1occc1C(=O)NCc1ccccc1,-4.89%
19,CCOC(=O)c1c(C)c(C(=O)NCc2ccco2)c(C)n1Cc1ccccc1,-1.66%
20,CC1CCCCN1C(=O)C1CCCCC1C(=O)O (stereo not drawn),0.909%
21,O=C(CCC1CCCC1)Nc1nc2ccccc2s1,-2.65%
22,C#CCNc1cc(-c2ccccc2)nc2nncn12,-2.57%
23,FC(F)(F)c1ccccc1CN1CCN(c2ccc(Cl)cc2)CC1,-2.03%
24,N#Cc1nc(-c2ccc([N+](=O)[O-])cc2)oc1NCc1ccccc1,-0.152%
25,CC(C)CC(C(=O)NCC#N)c1cnc(-c2ccc(-c3csc(N4CCNCC4)n3)cc2)s1 (stereo not drawn),-4.72%
